# Results published in PubChem BioAssay AID1030 (National Center for Advancing Translational Sciences (NCATS), 2008).
# Several values for one entry are separate records, joined by “and”; a condition that tells them apart may be missing. Equal entries are not always repeated. Hit rate of the full screen: of about 220,000 compounds, about 16,000 (7.3%) were called active. Inconclusive results, whose numbers are uncertain, are shown with a selection of clear calls. Calls follow the shape of the dose curve; as a rule, active = well fitted inhibition curve with a large enough effect (not every such curve was filed as active); inconclusive = small, poorly fitted or top-dose-only effect, or another doubt; inactive = no such curve, though single readings can be large or run the other way. A potency beside an inconclusive call is a rough fit, not a confirmed value.
# Molecular target: Aldehyde dehydrogenase 1A1 (Homo sapiens) (UniProt P00352)
# Assay: qHTS Assay for Inhibitors of Aldehyde Dehydrogenase 1 (ALDH1A1)
# Conditions: Purified ALDH1A1, NADH fluorescence, propionaldehyde substrate; series mostly up to 75.3 µM
# Potency is read from the fitted curve at half-maximal effect; tags tell the direction and shape of the fitted curve.
# UniProt P00352, sequence (P00352 whole entry, looked up): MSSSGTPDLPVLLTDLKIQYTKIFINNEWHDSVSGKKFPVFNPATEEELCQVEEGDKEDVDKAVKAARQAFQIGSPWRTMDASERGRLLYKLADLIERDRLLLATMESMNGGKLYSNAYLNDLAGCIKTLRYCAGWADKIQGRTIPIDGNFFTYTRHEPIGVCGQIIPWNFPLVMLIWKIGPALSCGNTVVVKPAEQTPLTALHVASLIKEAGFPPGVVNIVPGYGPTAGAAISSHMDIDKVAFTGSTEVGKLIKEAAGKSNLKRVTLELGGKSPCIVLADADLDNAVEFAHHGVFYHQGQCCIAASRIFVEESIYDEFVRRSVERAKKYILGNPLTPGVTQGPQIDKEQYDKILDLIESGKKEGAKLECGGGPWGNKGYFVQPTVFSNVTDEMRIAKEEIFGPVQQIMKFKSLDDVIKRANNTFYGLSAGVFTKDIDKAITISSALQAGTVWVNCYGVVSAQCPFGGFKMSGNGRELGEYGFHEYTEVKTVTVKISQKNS
row,Structure (SMILES),Potency
1,Cc1ccc(CNC(=O)CCCNC(=O)c2ccc(Cl)cc2)n1C,active: 28.2 µM
2,Cc1cccc(CSc2nnc(-c3ccco3)o2)c1,inactive
3,Cc1ccc(NC(=O)CCCCCCCCCCC2COCCO2)c(C)c1 (stereo unspecified),inactive
4,CCNc1ncc2nc(-c3ccccc3)c(=O)n(Cc3ccc(F)cc3)c2n1,"inconclusive: 10 µM [inhibitor, partial curve]"
5,Cc1nc2c(=O)[nH]c3ccccc3c2o1,inactive
6,OCCN(Cc1ccccc1)Cc1ccccc1F,inactive
7,COc1ccc(NC(=O)C2CC(=O)N/C(=N/NC(=O)c3ccc(Cl)cc3)S2)cc1 (stereo unspecified),inactive
8,CN(C)CCCc1cc(C(=O)Nc2ccc(-c3ccncc3)cc2)ccc1O,"inconclusive: 39.8 µM [inhibitor, single point] and inconclusive: 37.7 µM [inhibitor, single point]"
9,O=C(CCN1C(=O)c2ccccc2C1=O)Nc1ccc(-c2nc3ccccc3o2)cc1,"inconclusive: 25.1 µM [inhibitor, single point]"
10,O=C(c1ccccc1)c1coc2ccc(O)c(CN3CCOCC3)c12,"inconclusive: 39.8 µM [inhibitor, single point]"
11,CSc1ccccc1-c1nnc(-c2ccc(Cl)cc2)o1,"inconclusive: 25.1 µM [inhibitor, partial curve]"
12,O=C(N/C(=C/c1ccc(Cl)cc1)c1nc2ccccc2[nH]1)c1ccco1,"inconclusive: 35.5 µM [inhibitor, single point]"
13,Cn1c(=O)c2c(nc(/C=C/c3cccc(Cl)c3)n2C)n(C)c1=O,"inconclusive: 1.78 µM [inhibitor, full curve] and inconclusive: 3.98 µM [inhibitor, full curve]"
14,Cc1cc(C(=O)CSc2nc3ccccc3n2CCC#N)c(C)n1Cc1cccs1,inactive
15,COc1ccc(-c2[nH]ncc2/C=C(/C#N)C(=O)NC2CCCCC2)cc1,"inconclusive: 28.2 µM [inhibitor, partial curve]"
16,CC1CCN(C(=O)Cc2nn(C)c(=O)c3ccccc23)CC1,"inconclusive: 39.8 µM [inhibitor, single point]"
17,Cc1ccc(N=Nc2[nH]c3ccccc3c2O)cc1,"inconclusive: 37.7 µM [inhibitor, single point]"
18,CCN(CC)Cc1c(O)c(Cl)cc2c(C)c(C)c(=O)oc12,"inconclusive: 22.4 µM [inhibitor, partial curve]"
19,Cc1ccc(C2C(C(=O)c3cccs3)=C(O)C(=O)N2CCN2CCOCC2)o1 (stereo unspecified),active: 17.8 µM
20,Cc1nn(-c2ccccc2)c2sc(C(=O)OCn3nnc4ccccc4c3=O)cc12,"inconclusive: 25.1 µM [inhibitor, single point]"
21,C1COC1,inactive
22,Cc1ccc(CCC(=O)Nc2ncc(Cc3cccc(Cl)c3Cl)s2)o1,"inconclusive: 39.8 µM [inhibitor, single point]"
23,N#C/C(=C/c1cn(CC(=O)O)c2ccccc12)C(=O)Nc1ccccc1,active: 25.1 µM

row,Structure (SMILES),Potency
1,COCCN1CN(S(=O)(=O)c2ccc(Cl)cc2)c2nc3ccccc3nc21,active: 23.8 µM
2,COc1cccc(OC)c1NC(=O)CN1CCC(NC(=O)c2cccc(F)c2)CC1,active: 39.8 µM
3,COc1cccc(/C=N/NC(=O)CNC(=O)c2ccc3c(c2)OCCO3)c1O,inactive
4,CN(NC(=O)C1CC(=O)N(c2ccccc2)C1)C1=NS(=O)(=O)c2ccccc21 (stereo unspecified),inactive
5,CC(C)(C)NC(=O)CN(C(=O)CN1C(=O)C(=O)c2ccccc21)C(C)(C)C,active: 0.126 µM
6,O=C(NCc1cccs1)C1CCN(S(=O)(=O)c2ccc(Cl)cc2)CC1,"inconclusive: 8.91 µM [inhibitor, single point]"
7,COc1cc(/C=C2\SC(=O)N(c3ccccc3Cl)C2=O)cc([N+](=O)[O-])c1O,active: 0.158 µM
8,COc1cc(OC)cc(C(=O)N[C@H](C(=O)OCn2nnc3ccccc3c2=O)C(C)C)c1,inactive
9,Cc1ccc(Cl)cc1N1CCN(S(=O)(=O)c2c(C)[nH]c(=O)[nH]c2=O)CC1,inactive
10,Cc1ccc(OCC(=O)N2CCN(S(=O)(=O)c3ccc(Cl)cc3)CC2)c([N+](=O)[O-])n1,"inconclusive: 39.8 µM [inhibitor, single point]"
11,Cc1ccccc1/[N+]([O-])=C/c1ccncc1,active: 3.98 µM
12,CSC1CCCCC1(O)CSc1nc2c(cc1C#N)CCCC2 (stereo unspecified),active: 7.94 µM
13,CC(=O)OC[C@H]1O[C@@H](O/N=C/[C@@H](C)[C@H](OCc2ccccc2)C(C)C)[C@H](OC(C)=O)[C@@H](OC(C)=O)[C@@H]1OC(C)=O,"inconclusive: 11.2 µM [inhibitor, partial curve]"
14,O=C(NCC1CCCCC1)C12CN(Cc3ccccc3)CC1C(c1cccc([N+](=O)[O-])c1)=NO2 (stereo unspecified),"inconclusive: 25.1 µM [inhibitor, single point]"
15,CCOc1ccc(N(CC(=O)Nc2nccs2)S(=O)(=O)c2c(C)[nH]c(=O)[nH]c2=O)cc1,inactive
16,Cc1sc(NC(=O)CSC2=NCCS2)nc1-c1ccccc1,"inconclusive: 39.8 µM [inhibitor, single point]"
17,O=C1Nc2ccc(S(=O)(=O)N3CCCC3)c3cccc1c23,"inconclusive: 39.8 µM [inhibitor, single point]"
18,S=C(NCc1ccc2c(c1)OCO2)Nc1ccc(-c2nc3ccccc3[nH]2)cc1,"inconclusive: 25.1 µM [inhibitor, single point]"
19,Cc1ccc2nc(-c3ccccn3)cc(C(=O)NC(C)C(C)(C)C)c2c1 (stereo unspecified),"inconclusive: 39.8 µM [inhibitor, single point]"
20,O=C(c1ccco1)N1CCN(S(=O)(=O)c2ccc(Br)s2)CC1,active: 8.91 µM
21,C/C(=N/N1CCN(c2ccccc2)CC1)c1cccc([N+](=O)[O-])c1,inactive
22,CCN(CC)CCCn1c(-c2ccccc2)nc2c(NCCOC)nc(C)nc21,"inconclusive: 25.1 µM [inhibitor, partial curve]"
23,COc1ccc2[nH]c3c(=O)n(N)c(C)nc3c2c1,"inconclusive: 28.2 µM [inhibitor, partial curve]"
